According to PubChem BioAssay AID488969 (Vanderbilt High Throughput Screening Facility, 2010):
Whole data set: some 110,000 compounds, median “z-score” near -0.1, cut for the highest 2% near 2. The list shows a part of the results.

Each compound was assayed against Metabotropic glutamate receptor 8 (Rattus norvegicus) (UniProt P70579) (assay: rat mGluR8 modulators via GIRK flux, primary screen, cell-based, thallium flux, HTS (AID 488969)). Details: HEK293 rat mGluR8, GIRK (G protein-gated inwardly rectifying potassium channel) thallium flux, FluoZin2; at 10 µM; stronger effect = higher value; submaximal glutamate (EC20) added with thallium.
Sequence of UniProt P70579 (P70579 whole entry, looked up): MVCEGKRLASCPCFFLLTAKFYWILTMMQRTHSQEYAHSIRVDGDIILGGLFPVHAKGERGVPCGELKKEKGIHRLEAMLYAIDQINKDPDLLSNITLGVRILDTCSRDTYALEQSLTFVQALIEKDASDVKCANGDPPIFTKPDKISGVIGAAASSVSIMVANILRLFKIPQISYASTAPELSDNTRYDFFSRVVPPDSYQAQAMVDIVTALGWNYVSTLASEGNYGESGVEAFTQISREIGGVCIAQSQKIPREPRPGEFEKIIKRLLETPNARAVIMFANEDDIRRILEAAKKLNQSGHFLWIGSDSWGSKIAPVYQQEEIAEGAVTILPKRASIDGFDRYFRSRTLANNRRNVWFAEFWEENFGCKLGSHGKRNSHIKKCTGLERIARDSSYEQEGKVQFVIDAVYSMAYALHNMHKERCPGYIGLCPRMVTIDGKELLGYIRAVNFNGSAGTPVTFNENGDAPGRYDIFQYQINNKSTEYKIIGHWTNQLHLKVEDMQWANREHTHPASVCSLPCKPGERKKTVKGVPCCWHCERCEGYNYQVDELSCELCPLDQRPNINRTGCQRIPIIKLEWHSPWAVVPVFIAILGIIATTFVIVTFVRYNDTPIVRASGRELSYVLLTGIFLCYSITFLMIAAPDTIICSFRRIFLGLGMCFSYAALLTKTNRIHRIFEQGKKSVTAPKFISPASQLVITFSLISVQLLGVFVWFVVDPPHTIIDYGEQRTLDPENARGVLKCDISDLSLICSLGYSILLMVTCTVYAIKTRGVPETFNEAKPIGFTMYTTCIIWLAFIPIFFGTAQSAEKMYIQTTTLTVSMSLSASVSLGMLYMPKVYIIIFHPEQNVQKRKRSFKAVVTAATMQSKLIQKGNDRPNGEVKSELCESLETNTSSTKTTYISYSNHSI
With `Cc1ccc(/C=N/NC(=O)C(NC(=O)c2ccccc2)c2n[nH]c(=O)c3ccccc23)cc1` (centres undefined) the z-score was -0.13. `CC(=O)OCc1c(C(F)(F)F)nn(C)c1Oc1cccc(C(F)(F)F)c1` was tested, and the z-score was -0.142. Compound `CCCCn1c(=O)n(CC(=O)Nc2c(CC)cccc2CC)c(=O)c2c1nc(CO)n2CCC` has a z-score of -0.584. `COc1ccc(S(=O)(=O)N(C)CC(=O)N2CCC(C(N)=O)CC2)cc1` was tested, and the z-score was 0.0352. `O=C(Nc1cccc(-c2cnc3ccccc3n2)c1)c1ccc(Cl)cc1` showed a z-score of -0.669. Work on `CC1CCCN(c2nc3c(c(=O)n(C)c(=O)n3C)n2CCSc2nc3ccccc3o2)C1` (centres undefined) yielded a z-score of -1.37. For `C=C(C)CNC(=S)NNC(=O)c1ccco1`, the z-score was -0.224. `CCOC(=O)N1CCC(NS(=O)(=O)c2ccc3c(c2)oc(=O)n3C)CC1` was tested, and the z-score was 0.489. `CS(=O)(=O)N1CCc2cc(-c3csc(NC(=O)Cc4ccccc4)n3)ccc21` was tested, and the z-score was -0.204. With `COc1ccccc1N1CCN(C(=O)c2cc3c(=O)n(C)c4ccccc4c3n2C)CC1` the z-score was -1.66. Work on `COc1ccccc1N(CC(=O)Nc1c(C)cccc1C)S(C)(=O)=O` yielded a z-score of 0.145. `CCN(CC)S(=O)(=O)c1cccc(C(=O)NCC(=O)OCC(=O)NCc2ccccc2)c1` was tested, and the z-score was -1.17. Work on `O=C(NCCc1nc2ccccc2[nH]1)c1cc([N+](=O)[O-])cc([N+](=O)[O-])c1` yielded a z-score of -0.332. `Nc1cc(N2CCCCC2)c(Cl)cc1[N+](=O)[O-]` was tested, and the z-score was -0.394. `O=C(CSc1nnnn1-c1ccccc1)Nc1ccc(Cl)cn1` gave a z-score of 1.07. With `CCOC(=O)c1sc(=S)n(-c2ccccc2)c1N` the z-score was -0.000963. For `CCOC(=O)C1CCCN(c2c(NCC3CCCO3)c(=O)c2=O)C1` (centres undefined), the z-score was -0.374. `NS(=O)(=O)c1ccc(CCNC2CC(=O)N(Cc3ccccc3)C2=O)cc1` (centres undefined) was tested, and the z-score was -1.4. `CCN1CCN(c2ccc([N+](=O)[O-])cc2C(=O)c2ccc(Cl)cc2)CC1` was tested, and the z-score was 0.0106. `Cc1cccc(NC(=O)Cn2cnc3c(oc4nc5c(cc43)COC(C)(C)C5)c2=O)c1` showed a z-score of -0.0825. In the case of `Cc1snc(S(=O)(=O)/C(C#N)=N/Nc2cccc(C(F)(F)F)c2)c1C#N`, the z-score is reported as -0.268. Work on `CCOC(=O)c1cc2c(C)nn(-c3ccccc3)c2s1` yielded a z-score of -0.0733. In the case of `COc1ccc(NC(=O)CSc2nnc(-c3cccs3)n2Cc2ccco2)cc1OC`, the z-score is reported as -0.682. `CCCCC(=O)Nc1ccc(C(=O)NN2C(=O)c3ccccc3C2=O)cc1` showed a z-score of -0.164. `N#Cc1ccccc1Sc1ccccc1N` gave a z-score of -0.17. With `CCC(C)(C)n1nnnc1CN(Cc1cc2cc(OC)c(OC)cc2[nH]c1=O)C1CCCC1` the z-score was -1.45. `COc1ccc(-c2nc(N)n(C(=O)c3ccc(C)cc3)n2)cc1` gave a z-score of 0.106. In the case of `CCOCCCNC(=O)NC12CC3CC(CC(C3)C1)C2`, the z-score is reported as 0.179. Work on `O=C(c1ccccc1)c1nn(-c2ccc(Cl)cc2)c(=O)cc1C(F)(F)F` yielded a z-score of -0.239. `COc1cc(C)nc(Oc2ccc(OCc3ccccc3)nn2)n1` gave a z-score of -0.107. `CCOC(=O)CCC(NC(=O)CCCCCCCC(=O)NC(CCC(=O)OCC)C(=O)OCC)C(=O)OCC` (centres undefined) gave a z-score of -0.356. Compound `O=C(CSc1nnc(-c2ccco2)n1Cc1ccco1)NCc1ccccc1` has a z-score of -0.817. For `CCn1c(CNC(=O)c2cccs2)nnc1SCC(=O)NCCc1ccccc1`, the z-score was -0.143. Work on `CCN1CCc2c(C#N)c(N3CCCCC3)nc(N3CCOCC3)c2C1` yielded a z-score of -0.819. With `CC(C)c1nc(Cl)c(C#N)c2c1CCCC2` the z-score was -0.406. With `c1ccc2c(c1)Sc1ccccc1-n1cnnc1-2` the z-score was -0.821. `CC(C)C(=O)Nc1cc(C(F)(F)F)ccc1N1CCOCC1` gave a z-score of -0.651. For `Cc1ccc(-c2nnc(Nc3ccc4c(c3)OCO4)c3ccccc23)cc1S(N)(=O)=O`, the z-score was -0.547. In the case of `CCc1ccc(NC(=O)C(C)OC(=O)c2ccc(N3CCCC3)c([N+](=O)[O-])c2)cc1` (centres undefined), the z-score is reported as -0.0246. `CC(C)Oc1ccc(C(=O)NC(C)(C)CO)cc1` showed a z-score of 0.163. `CCC(C)NC(=O)Cn1c(=O)n(CCCC(=O)NCc2ccccc2Cl)c(=O)c2ccccc21` (centres undefined) was tested, and the z-score was 0.357. Compound `c1ccc(-n2ncc3c2ncn2cnnc32)cc1` has a z-score of 0.0868. `N#Cc1c(N)n(CCOC(=O)c2ccc(Cl)cc2)c2nc3ccccc3nc12` gave a z-score of 0.48. In the case of `Cc1cc(NC(=O)c2ccc3nc(-c4ccccc4)c(-c4ccccc4)nc3c2)no1`, the z-score is reported as 0.511. Compound `CCOC(=O)c1c(C)n(CC)c2ccc(OC(=O)c3ccc([N+](=O)[O-])cc3)cc12` has a z-score of -0.0971. `Cc1ccc(-n2c3c(c(=O)[nH]c2=O)C(C(F)(F)F)(C(F)(F)F)NC(=O)N3)cc1` showed a z-score of 0.799. For `FC(F)(F)c1cccc(NC(=S)NNC(=S)NCc2ccccc2)c1`, the z-score was -0.388. Work on `CC1(C)OC(=O)C(=NNc2ccc(O)cc2)C(=O)O1` yielded a z-score of -0.129. In the case of `Cc1cccc(-n2cc(-c3ccccc3)c3c(=O)[nH]cnc32)c1`, the z-score is reported as -0.301. `COc1cccc(NC(=O)CN2CCN(S(=O)(=O)c3ccc(C(C)C)cc3)CC2)c1` was tested, and the z-score was -0.697. `Cc1cc(C)c(C(=O)C2OC(=O)C(C)(C)C(=O)C2(C)C)c(C)c1` (centres undefined) was tested, and the z-score was 0.0247. Work on `COc1ccc(/C=N/NC(=O)c2ccoc2C)cc1O` yielded a z-score of -0.231. `Cc1ccc2oc(C(=O)NCc3ccc4c(c3)OCO4)c(C)c2c1` showed a z-score of -0.338. Work on `CCCC(C(=O)NC1CCCC1)N(CCCN1CCOCC1)C(=O)c1snc(C(N)=O)c1N` (centres undefined) yielded a z-score of -0.289.
